Source: paper PMC6893434
Results are given in words; binding and its absence hold for the method and conditions named. In cells and extracts the contact can be indirect. Some results given as binding are weak or reduced against the parent protein; the word gives no strength. One block for each substance: values may come before it.

Protein sequences, listed by entry. Tags and fused reporters are not part of them. Lines headed by an entry give the natural chain unless they say otherwise; changes in a name come on top.
UniProt Q96D31: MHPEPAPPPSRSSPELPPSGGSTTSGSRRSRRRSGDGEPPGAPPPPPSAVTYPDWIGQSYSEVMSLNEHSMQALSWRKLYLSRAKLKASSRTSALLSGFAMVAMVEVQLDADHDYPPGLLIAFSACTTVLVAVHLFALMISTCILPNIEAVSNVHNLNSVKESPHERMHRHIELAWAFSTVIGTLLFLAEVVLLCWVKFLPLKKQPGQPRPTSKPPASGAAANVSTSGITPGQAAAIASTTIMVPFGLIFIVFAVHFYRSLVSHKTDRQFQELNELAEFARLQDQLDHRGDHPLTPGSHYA
UniProt P40145: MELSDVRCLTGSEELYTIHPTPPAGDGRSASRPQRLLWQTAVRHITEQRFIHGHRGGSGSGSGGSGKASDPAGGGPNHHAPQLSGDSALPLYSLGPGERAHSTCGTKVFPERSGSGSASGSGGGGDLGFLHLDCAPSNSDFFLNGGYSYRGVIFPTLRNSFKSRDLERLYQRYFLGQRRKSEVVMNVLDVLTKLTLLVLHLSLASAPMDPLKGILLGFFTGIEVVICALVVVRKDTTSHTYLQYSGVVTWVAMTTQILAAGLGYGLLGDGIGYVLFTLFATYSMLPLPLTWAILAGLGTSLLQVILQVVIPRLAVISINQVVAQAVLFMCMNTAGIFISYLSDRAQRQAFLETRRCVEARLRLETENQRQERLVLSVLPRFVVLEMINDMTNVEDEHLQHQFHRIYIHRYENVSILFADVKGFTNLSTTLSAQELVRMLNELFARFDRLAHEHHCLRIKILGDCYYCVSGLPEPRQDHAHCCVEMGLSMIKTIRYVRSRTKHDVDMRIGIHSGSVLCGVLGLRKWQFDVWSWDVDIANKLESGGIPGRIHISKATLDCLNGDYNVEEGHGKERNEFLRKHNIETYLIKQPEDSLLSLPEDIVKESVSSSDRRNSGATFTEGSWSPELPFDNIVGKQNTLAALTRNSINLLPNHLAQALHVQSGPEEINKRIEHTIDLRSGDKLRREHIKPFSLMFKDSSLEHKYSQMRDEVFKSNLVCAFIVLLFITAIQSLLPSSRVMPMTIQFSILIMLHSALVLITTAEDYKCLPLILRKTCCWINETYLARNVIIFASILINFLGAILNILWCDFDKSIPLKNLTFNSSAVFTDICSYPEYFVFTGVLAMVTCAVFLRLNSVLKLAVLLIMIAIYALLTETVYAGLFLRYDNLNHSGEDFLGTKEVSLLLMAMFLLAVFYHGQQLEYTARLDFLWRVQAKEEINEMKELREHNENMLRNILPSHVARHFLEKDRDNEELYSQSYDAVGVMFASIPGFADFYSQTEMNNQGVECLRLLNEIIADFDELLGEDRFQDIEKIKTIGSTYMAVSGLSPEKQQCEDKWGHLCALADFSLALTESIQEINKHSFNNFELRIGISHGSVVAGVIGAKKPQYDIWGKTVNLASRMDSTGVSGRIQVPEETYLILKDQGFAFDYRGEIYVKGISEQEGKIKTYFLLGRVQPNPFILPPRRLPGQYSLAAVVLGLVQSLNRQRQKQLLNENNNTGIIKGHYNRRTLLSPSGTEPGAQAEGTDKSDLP

How the values were obtained:
[1] = biological target: Orai1 (endogenous, variants not told apart) (human (endogenous in MCF10A, MCF7, MDA-MB-231)) (UniProt Q96D31); assay: co-IP; whole-cell lysates (NP-40 buffer, pH 8) of MCF10A, MCF7 and MDA-MB-231 cells precipitated with anti-Orai1 antibody and protein A agarose overnight at 4 °C, blot with anti-AC8; resting cells; MDA-MB-231 also with or without 1 µM TG for 1 min, dimethyl BAPTA loading, 1 mM Ca2+ or Ca2+-free medium
[2] = biological target: Ca2+ calmodulin-activated adenylyl cyclase type 8 (human (endogenous in MCF10A, MCF7, MDA-MB-231)) (UniProt P40145); assay: co-IP; MDA-MB-231 cells transfected with YFP-Orai1 or the Orai1 mutants, 1 µM TG or vehicle for 1 min; whole-cell lysates precipitated with anti-AC8 antibody, blot with anti-Orai1
[3] = biological target: Ca2+ calmodulin-activated adenylyl cyclase type 8 (human (endogenous in MCF10A, MCF7, MDA-MB-231)) (UniProt P40145); assay: co-IP; MDA-MB-231 whole-cell lysates (1 µM TG or vehicle, 1 min) precipitated with anti-AC8 antibody, bound proteins eluted with soft elution buffer and precipitated again with anti-Orai1; membranes reprobed with anti-Orai1 and anti-AC8
[4] = biological target: Ca2+ calmodulin-activated adenylyl cyclase type 8 (human (endogenous in MCF10A, MCF7, MDA-MB-231)) (UniProt P40145); assay: co-IP; MDA-MB-231 whole-cell lysates (resting or 1 µM TG for 1 min) precipitated with anti-AC8 antibody; immunoprecipitates treated with PNGaseF, blot with anti-Orai1

Substance: Flag-Orai1-S27A/S30A (from UniProt Q96D31 1-301)
binding [2]: binds

Substance: Flag-Orai1-S27D/S30D (from UniProt Q96D31 1-301)
binding [2]: binds

Substance: Orai1α (from UniProt Q96D31 1-301)
binding [4]: binds

Substance: Orai1β (from UniProt Q96D31 64-301)
binding [4]: no binding

Substance: YFP-Orai1 (from UniProt Q96D31 1-301)
binding [2]: binds

Now from value to substance:

binding [1]: binds
Substance: Ca2+ calmodulin-activated adenylyl cyclase type 8 (from UniProt P40145 1-1251) (enzyme)

binding [3]: binds
Substance: Orai1 (endogenous, variants not told apart) (from UniProt Q96D31 1-301)
